Source: PubChem BioAssay AID1508624 (National Center for Advancing Translational Sciences (NCATS), 2021)
In all, about 48,000 compounds went through this assay and about 120 (0.25%) were called active. Not shown: some 4% with an inconclusive outcome. The call rests on the fitted dose curve; in most records, active means well fitted activation curve with a large enough effect; inconclusive means small, poorly fitted or top-dose-only effect, or another doubt; inactive means no such curve, though single readings can be large or run the other way. This is one part of the list.

Assay: Primary qHTS for Identification of Small Molecule Activators of Huntingtin-Antisense Promoter Activity; further: nearly all actives have a fitted effect of over 55% in size
Settings: HEK293 HTT-AS promoter firefly luciferase reporter, 24 h; series mostly up to 57.5 µM; activity change, positive = activation: at the top concentration
Outline: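 HEK293 cells carrying firefly luciferase reporters were seeded at 2,500 per well in Opti-MEM and cultured for 24 h. They were then treated with compounds at up to 57.5 uM final for 24 h at 37 degrees C before Dual-Glo luminescence readout.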

Activity change, positive = activation, inactive:
COc1ccc(Cl)cc1NC(=O)C(C)n1nnc2sc3c(c2c1=O)CCCC3 (stereo not given) -13.1%, COc1ccccc1C(=O)Nc1cc(-c2cccc(Br)c2)nn1-c1ccccc1 -5.83%, Cc1cc(C)cc(N2C(=O)CC(c3ccc(C(F)(F)F)cc3)C3=C2COC3=O)c1 (stereo not given) -13.6%, CCN1CCN(c2csc3ccc(Cl)cc3c2=O)CC1 25.6%, Cc1cccc(NC(=O)CSc2nc(-c3cccs3)cc(C(F)(F)F)c2C#N)c1 -13.3%, CCCCn1c(Oc2cccc(C(=O)OC)c2)nc2c1c(=O)n(C)c(=O)n2C -8.07%, COc1ccc(Cn2c(SCC(=O)NCc3ccccc3)nc3ccccc32)cc1 -27.2%, Cc1ccc(C(=O)NCC(=O)OCc2cc(=O)n3nc(C4CCCCC4)sc3n2)cc1 -5.19%, CCOc1ccc(NC(=O)Cn2nnc(C(=O)OC)c2C(=O)OC)cc1 -18.7%, COc1ccc(C(=O)NC2(C(F)(F)F)C(=O)NC(C)=C2C#N)cc1 (stereo not given) -12.8%, Cc1ccc2c(c1)C(c1ccc(F)cc1)N(C(=O)C(C)C)CC(=O)N2 (stereo not given) -10.2%, CCc1cccc(NC(=O)Cn2nc(CC)n3c(cc4cc(C)ccc43)c2=O)c1 13.2%, O=c1oc2ccc3ccccc3c2cc1-c1nnc(Nc2ccccc2)s1 -7%, CCNC(=O)CCSc1nnc(-c2ccc(O)cc2)o1 15.6%, CCC(Oc1ccc(F)cc1)C(=O)Nc1cc(-c2ccc(C)cc2)no1 (stereo not given) 0%, COc1cccc(CNC(=O)Nc2cc(C(=O)NCc3cccc(F)c3)ccc2N2CCCC2)c1 -25.4%, O=C1NC(=O)C(=Cc2ccc3c(c2)OC(F)(F)O3)S1 -19.4%, CCN(CC)c1ccc(NC(=O)c2cc(CN3CCCC3)on2)c(C)c1 -9.57%, CCOc1cc(CNC(=O)c2ccc(NC(=O)c3nsc4ccccc34)cc2)ccc1OC -46.5%, Cn1c(=O)c2ccccc2n2c(CCC(=O)N3CCN(c4cccc(Cl)c4)CC3)nnc12 1.8%, CCN(CC)c1ccc(NC(=O)Cn2c(C)c3cnn(-c4ccccc4)c(=O)c3c2C)c(C)c1 -12.4%, Cc1cc(Cl)ccc1NC(=O)CCS(=O)(=O)c1cc2c(cc1C)NC(=O)CO2 -16%, COC(=O)c1c(-c2cccs2)csc1NC(=O)c1cc(OC)cc(OC)c1 29.3%, Cc1ccc(CNC(=O)C(CC(C)C)N2Cc3ccccc3C2=O)cc1 (stereo not given) -11.7%, O=C(NCCSc1c(-c2ccc(Br)cc2)[nH]c2ccccc12)c1ccc(S(=O)(=O)N2CCOCC2)cc1 -23.4%, Clc1cccc(-n2ncc3c(NCCCc4ccccc4)ncnc32)c1 -8.33%, Cc1cc(C)cc(NC(=O)C(Cc2ccccc2)N2Cc3ccccc3C2=O)c1 (stereo not given) -14%, COc1cc(C(C)=O)ccc1OCCCN1CCC(c2noc3cc(F)ccc23)CC1, Cc1ccc(CCNC(=O)c2sc3ncccc3c2-n2cccc2)cc1 6.02%, COc1cc(NC(=O)c2nc3cc(C)c(C)cc3n(C)c2=O)cc(OC)c1OC 12.2%, COc1cccc(NC(=O)CSc2nc(O)c(C/C=C/c3ccccc3)c(=O)[nH]2)c1 -14%, COc1ccc(N2CCN(S(=O)(=O)c3ccc(-c4cc(C(F)(F)F)on4)s3)CC2)cc1 -15.7%, CCC(=O)Nc1cc(C(=O)NCc2ccc(C)cc2)ccc1S(=O)(=O)c1ccc(C)cc1 -18.2%, CCc1cccc(C)c1Nc1c(-c2ccc(N(C)C)cc2)nc2ncccn12 -31%, Cc1ccc(C)c(CN2C(=O)c3ccccc3Sc3ccc(C(=O)NCc4ccco4)cc32)c1 -36.5%, Cc1cccc(OCc2ccc(-c3nc(C#N)c(N4CCN(c5ccccc5)CC4)o3)o2)c1 -16.4%, Cc1cc(C)c2oc(C(=O)Nc3c(C(=O)c4ccc(F)cc4)oc4ccccc34)cc(=O)c2c1 3.39%, CC1CCC(NC(=O)C2(C)Cc3ccccc3C(=O)N2Cc2ccccc2Cl)CC1 (stereo not given) -4.6%, N#Cc1ccccc1NC(=O)C(=O)NCC(c1cccnc1)N1CCc2ccccc2C1 (stereo not given) -5.82%, CN1[C@@H]2CC[C@H]1CC(OC(=O)c1c[nH]c3ccccc13)C2 (stereo not given in full) -3.31%, COc1cccc(CNc2ccc3c(c2)ncn3C)c1OC 0.849%, Cc1cc(SCC(=O)NCc2ccccc2)nc(=O)[nH]1 -16.1%, CCC(=O)N1CCc2cc(S(=O)(=O)NCCC(=O)Nc3cccc(C)c3C)ccc21 -0.53%, CCOc1ccccc1NC(=O)C1CCCN(S(=O)(=O)c2ccc3c(c2)CCCN3C(C)=O)C1 (stereo not given) -27.3%, CCc1ccc(S(=O)(=O)c2nnn3c2nc(Nc2cccc(C)c2C)c2sccc23)cc1 -42.8%, O=C(NCc1ccccc1Br)c1ccc(-n2cnc3cccnc32)cc1 -4%, COc1cc(-c2nnc(SCC(=O)N3CCCc4ccccc43)o2)cc(OC)c1OC -4.02%, COc1ccc(N(CC(=O)Nc2ccc(Cl)cc2C)S(=O)(=O)c2ccccc2)c(OC)c1 -12.2%, Cc1ccccc1C(=O)Nc1nnc(S(=O)(=O)N2CCCc3ccccc32)s1 -10.7%, CCN(C(=O)Cn1nc(Cc2cccnc2)c2ccccc2c1=O)c1cc(C)ccc1C -33.3%, COc1ccc(C(=O)N2CCC(C(=O)Nc3ccc(OC)cc3OC)CC2)cc1 3.56%, Cc1ccc(-n2c(=O)c3sccc3n(Cc3cc(=O)n4ccccc4n3)c2=O)cc1 -5.98%, O=C1C(c2ccc(C(F)(F)F)cc2)=C(Nc2ccc(Cl)cc2)c2ccccc21 -27.2%, Cc1onc(-c2ccccc2)c1C(=O)N[C@@H]1C(=O)N2[C@@H](C(=O)O)C(C)(C)S[C@@H]12 -3.53%, Cc1cccc(-c2cc(NC(=O)COc3ccccc3F)n(-c3ccccc3)n2)c1 21.1%, Cc1nnsc1C(=O)Oc1ccccc1Cl -2.56%, CSc1ccccc1NC(=O)CCS(=O)(=O)c1nc(-c2cccs2)cc(C(F)(F)F)n1 -5.69%, Cc1ccc(-c2cn3c4c(=O)n(C)c(=O)n(C)c4nc3n2-c2cccc(Cl)c2)cc1 -25.2%, CCn1c(C(=O)Nc2cc(C)cc(C)c2)cc2sc(Cl)cc21 -1.58%, COc1ccc(C(=O)N=c2sc3cc(Cl)ccc3n2C)cc1 -2.94%, Cc1ccc(NC(=O)CSc2nnc(-c3cc4occc4n3C)n2-c2ccccc2C)cc1F -24.5%, CCN(CC)CCOC(=O)c1ccc(NC(=O)CCn2c(=O)oc3ccccc32)cc1 -15.7%, COCCNC(=O)Cn1c(=O)n(-c2ccc(C)c(C)c2)c(=O)c2c3c(sc21)CCCCC3 -15%, CCOC(=O)c1cccc(NC(=O)C2CCN(c3nnc(C)c4c(C)n(-c5ccccc5)nc34)CC2)c1 -4.99%, COc1ccc(NC(=O)CN2CCN(S(=O)(=O)c3ccc(Br)cc3)CC2)cc1 -18.4%, COc1ccc(Cl)cc1NC(=O)C(C)N1Cc2ccccc2C1=O (stereo not given) -4.74%, CCOc1cc(CNC(=O)C(NS(=O)(=O)c2cccs2)C(C)C)cc(OCC)c1OCC (stereo not given) 11.9%, O=C(Cn1c(SCc2cccc(F)c2)nc2ccncc21)Nc1ccc(Cl)cc1F -11.3%, COc1ccc(NCc2cccn2-c2nnc(N3CCOCC3)s2)c(OC)c1 9.45%, O=C(NNc1ncnc2c1cnn2-c1ccccc1)c1ccccc1 14.4%, COc1ccc(C(=O)Nc2ccc3nc(N4CCCCC4)cc(C)c3c2)c(OC)c1 7.42%, Cc1cn2c(=O)cc(COc3cccc(NC(=O)c4cccc(F)c4)c3)nc2s1 -10.1%, COc1ccc(N2CCN(S(=O)(=O)CCNC(=O)Cc3ccc(-c4ccccc4)cc3)CC2)cc1 -7.93%, CN[C@@H]1C[C@H]2O[C@@](C)([C@H]1OC)n1c3ccccc3c3c4c(c5c6ccccc6n2c5c31)C(=O)N[C@H]4O -55.5%, Cc1ccc(C(CC(=O)Nc2ccc(C)cc2C)N2Cc3ccccc3C2=O)cc1 (stereo not given) -36.2%, CCOC(=O)c1c(NC(C)=O)c2c3c(sc2n1Cc1cccc(Cl)c1)CCCC3 -12%, CCCN(C(=O)CCn1cnc2onc(-c3ccc(F)cc3)c2c1=O)c1ccccc1C -33.9%, CCOC(=O)c1c(-c2ccccc2)csc1NC(=O)c1cc(-c2cccc(OC)c2)on1 -11.9%, Cc1ccc(Cl)cc1N1CCN(C(=O)Cn2nc(C)n3c(cc4sccc43)c2=O)CC1 -19.6%, Cc1cc(C)cc(C(=O)Nc2c3c(nn2-c2ccccc2C)CS(=O)(=O)C3)c1 -9.36%, Cc1ccc(C(=O)Nc2nnc(SCc3cc(=O)n4ccc(C)cc4n3)s2)cc1 15.2%, Cc1cc(C)cc(NC(=O)Cn2nnc(C(=O)NCc3ccco3)c2N)c1 -16.9%, O=C(CN1C(=O)COc2ccc(S(=O)(=O)N3CCCCCC3)cc21)N1CCN(c2ccccc2)CC1 -21.6%, CCC(=O)N1c2nc(C(C)C)nn2C2(CCCCC2)[C@@H]2CCCC[C@@H]21 2.51%, CC(=O)c1ccc(N2CCN(c3ccc(NC(=O)c4cccs4)cc3C(=O)O)CC2)cc1 14.4%, CC(C(=O)NCc1ccccc1Cl)n1ccc2cc(S(=O)(=O)N3CCCCC3)ccc21 (stereo not given) -29.3%, Cc1ccc(-n2ncc(C(=O)NCCCN3CCCCC3)c2C2CCN(C(=O)OC(C)(C)C)CC2)c(C)c1 -6.03%, Cc1ccc(NC(=O)CSc2nnc3nc(C)cc(C)n23)cc1 -15.7%, CCc1cccc(C)c1NC(=O)CCCn1c(=O)c2cccn2c2cccnc21 -0.393%, CCOC(=O)c1ccccc1NC(=O)NC(C)c1c(-n2cccc2)sc(C)c1C (stereo not given) -26.8%, Cc1ccc(C)c(NC(=O)CN2C(=O)c3cccc4cccc2c34)c1 -16%, O=c1c2ccccc2n2c(-c3ccccc3O)nnc2n1Cc1ccc(F)cc1 -6.1%, Cc1cccc(Cn2ccn(Cc3ccc(Cl)cc3)c(=O)c2=O)c1 -5.62%, CCN(CC)C(=O)c1sc(NC(=O)c2nc3ncccn3n2)c(C(=O)OC)c1C -7.34% [at 11.5 µM, percent change from vehicle, -100% = no light], Cc1ccc(S(=O)(=O)c2cnc(SCC(=O)Nc3cccc(Cl)c3)nc2N)cc1C 12.9%
